Measurements: the supplement of paper PMC4967469

Compound: CCOc1cc2ncc(C#N)c(Nc3ccc(F)c(Cl)c3)c2cc1NC(=O)/C=C/CN(C)C [EKB-569]
Assay: Viability of human cancer cell lines after 72 h of drug (GDSC screen)
Conditions: top dose inferred
Description: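 Human cancer cell lines in 384-well plates, medium with 10% serum, drug for 72 h over a 256-fold dose range (nine 2-fold or five 4-fold steps up to the top dose). Adherent lines were fixed and stained with the nucleic acid dye Syto60, suspension lines read with resazurin; signal relative to control wells, capped at 0 and 100%. One two-parameter sigmoid per drug and line, fitted in a mixed model over all curves with the slope shared within a line.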

LOUCY (T-cell lymphoblastic leukaemia, suspension, top dose 20 µM)
AUC: 0.191 | IC50: 0.191 µM

LOXIMVI (melanoma, semi-adherent, top dose 2.5 µM)
AUC: 0.981 | IC50: > 2.5 µM

LP-1 (myeloma, suspension, top dose 2.5 µM)
AUC: 0.979 | IC50: > 2.5 µM

LS-123 (large intestine, adherent, top dose 2.5 µM)
AUC: 0.776 | IC50: 1.35 µM

LS-180 (large intestine, adherent, top dose 2.5 µM)
AUC: 0.875 | IC50: > 2.5 µM

LS-411N (large intestine, adherent, top dose 20 µM)
AUC: 0.608 | IC50: 2.65 µM

LS-513 (large intestine, adherent, top dose 20 µM)
AUC: 0.496 | IC50: 1.22 µM

LS-1034 (large intestine, adherent, top dose 2.5 µM)
AUC: 0.936 | IC50: > 2.5 µM

LU-65 (large cell lung carcinoma, suspension, top dose 2.5 µM)
AUC: 0.878 | IC50: > 2.5 µM

LU-99A (large cell lung carcinoma, adherent, top dose 2.5 µM)
AUC: 0.964 | IC50: > 2.5 µM

LU-134-A (small cell lung carcinoma, suspension, top dose 2.5 µM)
AUC: 0.968 | IC50: > 2.5 µM

LU-135 (small cell lung carcinoma, suspension, top dose 2.5 µM)
AUC: 0.912 | IC50: > 2.5 µM

LU-139 (small cell lung carcinoma, suspension, top dose 2.5 µM)
AUC: 0.954 | IC50: > 2.5 µM

LU-165 (small cell lung carcinoma, suspension, top dose 2.5 µM)
AUC: 0.988 | IC50: > 2.5 µM

LXF-289 (lung adenocarcinoma, adherent, top dose 2.5 µM)
AUC: 0.957 | IC50: > 2.5 µM

LoVo (large intestine, adherent, top dose 2.5 µM)
AUC: 0.935 | IC50: > 2.5 µM

M14 (melanoma, adherent, top dose 2.5 µM)
AUC: 0.987 | IC50: > 2.5 µM

M059J (glioma, adherent, top dose 2.5 µM)
AUC: 0.98 | IC50: > 2.5 µM

MC116 (B-cell lymphoma, suspension, top dose 2.5 µM)
AUC: 0.989 | IC50: > 2.5 µM

MC-CAR (haematopoietic neoplasm, suspension, top dose 2.5 µM)
AUC: 0.647 | IC50: 0.38 µM

MC-IXC (neuroblastoma, adherent, top dose 2.5 µM)
AUC: 0.982 | IC50: > 2.5 µM

MCF7 (breast, adherent, top dose 2.5 µM)
AUC: 0.986 | IC50: > 2.5 µM

MDA-MB-157 (breast, adherent, top dose 2.5 µM)
AUC: 0.988 | IC50: > 2.5 µM

MDA-MB-175-VII (breast, adherent, top dose 2.5 µM)
AUC: 0.202 | IC50: 0.0183 µM

MDA-MB-231 (breast, adherent, top dose 2.5 µM)
AUC: 0.96 | IC50: > 2.5 µM

MDA-MB-330 (breast, adherent, top dose 2.5 µM)
AUC: 0.969 | IC50: > 2.5 µM

MDA-MB-361 (breast, adherent, top dose 2.5 µM)
AUC: 0.796 | IC50: 1.16 µM

MDA-MB-415 (breast, adherent, top dose 2.5 µM)
AUC: 0.981 | IC50: > 2.5 µM

MDA-MB-436 (breast, adherent, top dose 2.5 µM)
AUC: 0.983 | IC50: > 2.5 µM

MDA-MB-453 (breast, adherent, top dose 20 µM)
AUC: 0.656 | IC50: 3.58 µM

MDA-MB-468 (breast, adherent, top dose 2.5 µM)
AUC: 0.67 | IC50: 0.457 µM

MDST8 (large intestine, adherent, top dose 2.5 µM)
AUC: 0.971 | IC50: > 2.5 µM

ME-1 (acute myeloid leukaemia, suspension, top dose 2.5 µM)
AUC: 0.865 | IC50: 2.49 µM

ME-180 (cervix, adherent, top dose 2.5 µM)
AUC: 0.651 | IC50: 0.419 µM

MEG-01 (chronic myeloid leukaemia, suspension, top dose 2.5 µM)
AUC: 0.591 | IC50: 0.273 µM

MEL-JUSO (melanoma, adherent, top dose 2.5 µM)
AUC: 0.895 | IC50: > 2.5 µM

MES-SA (uterus, adherent, top dose 2.5 µM)
AUC: 0.961 | IC50: > 2.5 µM

MFE-280 (endometrium, adherent, top dose 2.5 µM)
AUC: 0.798 | IC50: 1.58 µM

MFE-296 (endometrium, adherent, top dose 2.5 µM)
AUC: 0.983 | IC50: > 2.5 µM

MFE-319 (endometrium, adherent, top dose 2.5 µM)
AUC: 0.975 | IC50: > 2.5 µM

MFH-ino (soft tissue, adherent, top dose 2.5 µM)
AUC: 0.969 | IC50: > 2.5 µM

MFM-223 (breast, adherent, top dose 2.5 µM)
AUC: 0.973 | IC50: > 2.5 µM

MG-63 (osteosarcoma, adherent, top dose 2.5 µM)
AUC: 0.984 | IC50: > 2.5 µM

MHH-ES-1 (Ewing sarcoma, adherent, top dose 2.5 µM)
AUC: 0.917 | IC50: > 2.5 µM

MHH-NB-11 (neuroblastoma, adherent, top dose 2.5 µM)
AUC: 0.917 | IC50: > 2.5 µM

MHH-PREB-1 (B-cell leukaemia, suspension, top dose 2.5 µM)
AUC: 0.988 | IC50: > 2.5 µM

MIA-PaCa-2 (pancreas, adherent, top dose 2.5 µM)
AUC: 0.984 | IC50: > 2.5 µM

MKN1 (stomach, adherent, top dose 2.5 µM)
AUC: 0.867 | IC50: 2.47 µM

MKN28 (stomach, adherent, top dose 2.5 µM)
AUC: 0.921 | IC50: > 2.5 µM

MKN45 (stomach, adherent, top dose 2.5 µM)
AUC: 0.948 | IC50: > 2.5 µM

ML-1 (thyroid, adherent, top dose 2.5 µM)
AUC: 0.843 | IC50: 2.22 µM

ML-2 (acute myeloid leukaemia, suspension, top dose 2.5 µM)
AUC: 0.885 | IC50: 2.22 µM

MLMA (hairy cell leukaemia, semi-adherent, top dose 2.5 µM)
AUC: 0.755 | IC50: 0.854 µM

MMAC-SF (melanoma, adherent, top dose 2.5 µM)
AUC: 0.971 | IC50: > 2.5 µM

MN-60 (B-cell leukaemia, suspension, top dose 2.5 µM)
AUC: 0.944 | IC50: > 2.5 µM

MOG-G-CCM (glioma, adherent, top dose 2.5 µM)
AUC: 0.836 | IC50: 2.07 µM

MOG-G-UVW (glioma, adherent, top dose 2.5 µM)
AUC: 0.97 | IC50: > 2.5 µM

MOLM-13 (acute myeloid leukaemia, suspension, top dose 2.5 µM)
AUC: 0.546 | IC50: 0.207 µM

MOLP-8 (myeloma, suspension, top dose 2.5 µM)
AUC: 0.796 | IC50: 1.12 µM

Lines with a small IC50 respond at low doses; a fit beyond the top or the lowest dose is shown as a bound at that dose. AUC sums up the same curve from the lowest dose to the 256-fold higher top dose: 1 means no effect, lower means more sensitive. The top dose, if marked as inferred, was derived from the fitted curves, not read from the paper.
